PubChem BioAssay AID2676 (National Center for Advancing Translational Sciences (NCATS), 2010)
The whole screen tested about 370,000 compounds, of which about 1,100 (0.3%) were called active. This list was built around the results that the source calls inconclusive (neither active nor inactive); the mix of calls is not that of the screen. Calls come from the whole dose curve; as a rule, active = well fitted activation curve with a large enough effect; inconclusive = small, poorly fitted or top-dose-only effect; inactive = flat fitted curve, though single readings scatter. A potency beside an inconclusive call is a rough fit, not a confirmed value.

target: Relaxin receptor 1 (Homo sapiens) (UniProt Q9HBX9); assay: qHTS Assay for Agonists of the Relaxin Receptor RXFP1; conditions: HEK293T-RXFP1 cAMP TR-FRET, 30 min; series mostly up to 57.5 µM; note: nearly all actives have a fitted effect of over 60% in size
UniProt Q9HBX9, sequence (Q9HBX9 whole entry, looked up): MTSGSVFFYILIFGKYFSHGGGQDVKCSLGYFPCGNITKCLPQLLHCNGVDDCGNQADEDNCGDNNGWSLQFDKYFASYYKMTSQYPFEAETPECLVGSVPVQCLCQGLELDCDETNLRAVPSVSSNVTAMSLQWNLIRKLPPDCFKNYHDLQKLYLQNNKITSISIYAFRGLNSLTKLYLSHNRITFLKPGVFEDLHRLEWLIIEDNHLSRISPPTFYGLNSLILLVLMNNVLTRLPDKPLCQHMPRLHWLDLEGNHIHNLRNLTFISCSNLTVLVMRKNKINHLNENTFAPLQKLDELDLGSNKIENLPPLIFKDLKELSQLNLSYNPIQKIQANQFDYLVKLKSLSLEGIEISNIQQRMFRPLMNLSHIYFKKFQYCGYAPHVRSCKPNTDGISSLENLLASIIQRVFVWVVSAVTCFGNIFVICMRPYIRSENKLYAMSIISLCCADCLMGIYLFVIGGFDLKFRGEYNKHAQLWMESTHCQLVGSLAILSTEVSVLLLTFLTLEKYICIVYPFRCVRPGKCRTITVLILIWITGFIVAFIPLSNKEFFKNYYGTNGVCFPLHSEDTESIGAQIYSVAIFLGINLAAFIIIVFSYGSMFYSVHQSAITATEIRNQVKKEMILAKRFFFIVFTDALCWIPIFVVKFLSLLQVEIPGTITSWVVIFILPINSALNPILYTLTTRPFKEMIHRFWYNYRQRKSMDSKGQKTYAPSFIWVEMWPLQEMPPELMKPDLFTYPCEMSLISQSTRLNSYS
Text: NIH Chemical Genomics Center [NCGC] NIH Molecular Libraries Probe Production Centers Network [MLPCN] MLPCN Grant: R03 MH085705-01A1 Assay Submitter (PI): Alexander Agoulnik NCGC Assay Overview: The relaxin hormone is involved in the variety of biological functions in normal tissues and diseases. The role of relaxin is well-established in female reproduction and parturition, mammary gland and endometrial development, maintenance of myometrial quiescence during pregnancy. Relaxin signaling through its G protein-coupled receptor (GPCR) RXFP1 results in ECM remodeling through regulation of collagen deposition, cell invasiveness, proliferation and overall tissue homeostasis. […] Recombinant human relaxin (rhRlx) is currently being tested in clinical trials as a protective agent in congestive heart failure, in treating severe preeclampsia, and as an anti-fibrotic agent in systemic sclerosis. Upon relaxin binding RXFP1 activation leads to the activation of adenylate cyclase (AC) via Gs. cAMP will activate PKA, which phosphorylates many signaling proteins. Thus, detection of cAMP increase is an easy and reliable indication of relaxin receptor activation. To screen for agonists of the relaxin receptor, a HEK293T cell line stably transfected with RXFP1 was used. RXFP1 activation was assayed by changes in cAMP levels as detected with a time-resolved fluorescence energy transfer (TR-FRET) cAMP detection kit.
NCGC Assay Protocol Summary: This is a cell-based assay for cAMP second messenger response to screen for agonists of the RXFP1 receptor. The assay was conducted in the presence of a PDE4 inhibitor (Ro 20174). The cells were lysed and the cAMP levels were measured with a TR-FRET cAMP kit. Presence of cAMP in the cell lysate disrupts binding between the cryptate-labeled anti-cAMP and d2-labeled cAMP pair, leading to a decrease in the TR-FRET signal. Data were normalized to the controls for basal activity (buffer only) and 100% activity (29 nM porcine relaxin). The EC50 values were determined from concentration-response data modeled with the standard Hill equation 1536-well assay protocol for the HEK293 RXFP1 cAMP assay: (1) Add 3 ul HEK293 RXFP1 cell culture. 2000 cells/well in DMEM/F12, 10% FBS, 1x Pen/Strep (dispensed offline with MultiDrop Combi). (2) Incubate 16-24 hr at 37C, 5% CO2. (3) Add 1 ul 400uM Ro20174 in DPBS, 0.05% BSA, 0.005% Tween 20. (3) Add 23 nl compounds in DMSO solution. Final concentration was 0.5 - 58 uM. (4) Incubate 30 min at 37C, 5% CO2. (5) Add 1 ul cAMP-d2 in lysis buffer (HTRF cAMP HiRange kit, CisBio). (6) Add 1 ul anti-cAMP antibody-cryptate in lysis buffer (HTRF cAMP HiRange kit, CisBio). (7) Incubate 30 min at room temperature. (6) Detect the assay plate in a ViewLux plate reader (PerkinElmer) with Ex=320 nm, Em1=615 nm and Em2=665 nm. Keywords: relaxin, RXFP1, RXFP2, G-protein coupled receptor, cAMP, agonist, high throughput screening, MLSMR, MLSCN, NIH Roadmap, qHTS and NCGC
Potency is the fitted concentration of half-maximal effect; tags give direction and shape of the fitted curve.

Potency, active:
CCCCn1c(SCC(=O)N2CCOCC2)nc2c1c(=O)n(C)c(=O)n2C 15.8 µM
O=C(CN1CCCCC1)Nc1c2c(nc3ccccc13)N(c1ccccc1)CC2 25.1 µM
Cn1c(=O)c(C(=O)COc2ccc(C#N)cc2)c(N)n(Cc2ccccc2)c1=O 17.8 µM

Potency, inactive:
COc1ccc(OCC(=O)N2CCN(C(=O)c3cccc(OC)c3OC)CC2)cc1
COC(=O)C1=C(C)NC(C)=C(C(=O)OC)C1C(=O)OCCN1C(=O)c2ccccc2C1=O
Cc1cccc(/C=C2\Sc3ccc(C(=O)N4CCCCC4)cc3N(C)C2=O)c1
Cc1cnc(NC(=O)c2ccc(OCC3CCCO3)cc2)s1 (configuration not stated)
Cc1cc(C)nc(NC(=O)c2ccc(Cl)cc2Cl)n1
CCC(=O)C1=C(c2cccc([N+](=O)[O-])c2)N(C(=O)CC)n2c(nnc2C2CCCCC2)S1
CCN(CC)S(=O)(=O)c1ccc(O)c(NC(=O)c2cc(-c3cc(OC)c(OC)c(OC)c3)nc3ccccc23)c1
CCCCCCC(=O)N1C/C=C\C(c2ccc(OC)cc2)N(Cc2ccc(F)cc2)C(=O)C1 (configuration not stated)
C/C(=N\NC(=O)c1ccc(N)cc1)C1CC1
Cc1ccc(OCC(=O)NC(=S)Nc2ccccn2)c(Br)c1
CCOC(=O)C1CCN(c2ncnc3c2c(-c2ccccc2)cn3-c2ccc(C)c(Cl)c2)CC1
CS(=O)(=O)N1N=C(c2cccs2)CC1c1ccc(F)cc1 (configuration not stated)
CCCN1C(=O)C2(c3ccccc31)c1c(oc3cc(C)c(C)cc3c1=O)C(=O)N2CCCOC (configuration not stated)
O=C(NC1CCCC1)C1CCCN1C(=O)Nc1ccccc1 (configuration not stated)
Cc1cc(C)nc(N/N=C/C2=C(N3CCOCC3)C(=C/c3ccccc3)/CC2)n1
O=C(N/N=C/c1cccc([N+](=O)[O-])c1)c1c[nH]c2ccccc12
Cc1onc(-c2ccccc2)c1C(=O)NCc1ccc2c(c1)OCO2
Cc1ccccc1-c1nn2c(=O)cc(CN3CCN(C(=O)/C=C/c4ccccc4)CC3)nc2s1
COc1ccc(/C=C2/SC(=S)N(CCC(=O)O)C2=O)cc1

Potency, inconclusive:
Fc1ccccc1-c1n[nH]c(=S)n1C1CC1 22.4 µM [activator, partial curve]
COc1ccccc1Nc1nc(N)nc(-c2oc3ccccc3c2C)n1 39.8 µM [activator, single point]
CCOC(=O)c1cc(-c2ccc(F)cc2)nc2c1c(=O)[nH]c(=O)n2Cc1ccccc1 28.2 µM [activator, partial curve]
COc1cc(C)ccc1OCCSc1nc2ccc(NC(=O)c3ccccc3F)cc2s1 31.6 µM [activator, single point]
Cc1cc(C)cc(NC(=O)Cn2c(=O)n(CCC(C)C)c(=O)c3cccnc32)c1 39.8 µM [activator, single point]
COc1cccc(CNC(=O)CCCn2c(=O)c3cccn3c3ccc(F)cc32)c1OC 39.8 µM [activator, single point]
CCc1ccc2c(c1)c(=O)c(S(=O)(=O)c1ccccc1)cn2CC(=O)Nc1cc(C)ccc1C 39.8 µM [activator, single point]
CCOc1ncccc1C(=O)Nc1ccc(C(=O)Nc2ccc(OC)cc2)cc1 31.6 µM [activator, single point]
CCc1nnc(SC(CC)C(=O)NCCOC)c2cc3occc3n12 (configuration not stated) 17.8 µM [activator, partial curve]
COc1ccc(-n2c(=O)c3ccc(C(=O)NCc4ccc(C)cc4)cc3n(Cc3ccc(F)cc3Cl)c2=O)cc1 31.6 µM [activator, partial curve]
CCOC(=O)c1sc2ncn(CC(=O)Nc3cc(C)cc(C)c3)c(=O)c2c1C 25.1 µM [activator, single point]
CC1Cc2ccccc2N1C(=O)Cn1cnc2c1c(=O)n(C)c(=O)n2C (configuration not stated) 22.4 µM [activator, partial curve]
Cc1cccc(C)c1NC(=O)CCS(=O)(=O)c1ccc2c(c1)n(C)c(=O)c(=O)n2C 39.8 µM [activator, single point]
O=c1c2ccccc2nc(-c2ccc([N+](=O)[O-])cc2)n1O 25.1 µM [activator, partial curve]
Cc1cccc(NC(=O)CSc2nnc3c4ccccc4n(C)c3n2)c1 31.6 µM [activator, partial curve]
COc1cccc(Cn2cnc3c2c(=O)n(C)c(=O)n3C)c1 14.1 µM [activator, partial curve]
Oc1c(Br)cc(C=Nc2ccc3nc(-c4ccccc4)[nH]c3c2)c(O)c1Br 20 µM [activator, partial curve]
O=C(COc1ccccc1)NCC(=O)N/N=C/c1cccs1 15.8 µM [activator, partial curve]
COCCn1c(N)c(C(=S)NC(=O)c2cccs2)c(=O)[nH]c1=O 31.6 µM [activator, partial curve]
COc1ccc(C(=O)Nc2nnc(S(=O)(=O)Cc3ccccc3)s2)cc1 28.2 µM [activator, single point]
CCOc1cc2[nH]c(=S)n(CCCCC(=O)NCc3ccco3)c(=O)c2cc1OCC 25.1 µM [activator, partial curve]
CCc1ccc(OCC(=O)Nc2ccc3oc(-c4ccc(OC)cc4)nc3c2)cc1 14.1 µM [activator, partial curve]
N#Cc1ccsc1NC(=O)COC(=O)c1cc(Br)ccc1O 39.8 µM [activator, single point]
COC(=O)c1c(C)sc(-c2c(-c3ccc4c(c3)OCCO4)[nH]c3c2c(=O)[nH]c(=O)n3C)c1O 39.8 µM [activator, single point]
CCN(CC)S(=O)(=O)c1ccc(Cl)c(C(=O)Oc2cccnc2)c1 39.8 µM [activator, single point]
COc1ccc2[nH]c(=O)c(COC(=O)c3ccco3)cc2c1 39.8 µM [activator, single point]
COc1ccc(C(=O)Nc2cccc3c2C(=O)NC3=O)cc1S(=O)(=O)N1CCOCC1 31.6 µM [activator, partial curve]
CCOc1ccc(-c2oc3ccccc3c(=O)c2O)cc1OCC 25.1 µM [activator, partial curve]
CCOc1ccc(-c2cc(C(=O)NCCCn3ccnc3)c3cc(Br)ccc3n2)cc1 25.1 µM [activator, partial curve]
O=C(COc1cc2oc(=O)c3c(c2cc1Cl)CCC3)Nc1ccccn1 25.1 µM [activator, partial curve]
CCc1cc2ccc(C)c(C)c2nc1SCC(=O)Nc1cc(C)on1 35.5 µM [activator, single point]
Cc1nnc(SCc2cc(=O)n3c(C)cccc3n2)s1 28.2 µM [activator, partial curve]
CCOc1ccccc1-c1nc(C(N)=O)c2[nH]c(=O)n(-c3ccc(F)cc3)c2n1 39.8 µM [activator, single point]
COc1ccc(CC(=O)Nc2nc3c(s2)CC(C(C)(C)C)CC3)cc1 (configuration not stated) 35.5 µM [activator, single point]
CCCn1c(SCC(=O)c2ccc(OC)c(OC)c2)nc2c1c(=O)n(C)c(=O)n2C 14.1 µM [activator, partial curve]
CC(=O)c1sc(NC(=O)c2cnc(Cl)c(Cl)c2)nc1C 28.2 µM [activator, partial curve]
Cc1cccc(NC(=O)CSc2nc(COc3ccccc3)nc3ccccc23)c1C 31.6 µM [activator, single point]
CC(=O)NCCNC(=O)CCCc1nnc2n(C)c(=O)c3sccc3n12 8.91 µM [activator, partial curve]
COc1ccc(CNC(=O)Cn2nc(C)c3nn(-c4ccc(Cl)cc4)c(C)c3c2=O)cc1 39.8 µM [activator, single point]
O=S(=O)(c1ccccc1)c1nnn2c1nc(NCc1cccs1)c1sccc12 39.8 µM [activator, single point]
CCc1ccc(NC(=O)Cn2c(=O)n(CCC(=O)N3CCc4ccccc4C3)c(=O)c3ccccc32)cc1 39.8 µM [activator, single point]
Cc1ccc2nc(NCc3ccccc3)c(C#N)cc2c1 35.5 µM [activator, single point]
Cc1sc2ncnc(NC3CCN(Cc4ccccc4)CC3)c2c1C 28.2 µM [activator, partial curve]
COc1ccc(CCNC(=O)c2ccc(Nc3nc4ccccc4n4nnnc34)cc2)cc1OC 39.8 µM [activator, single point]
CC(=O)c1cccc(NC(=O)C(C)n2c(=O)cc(C)c3c(C)nn(-c4ccccc4)c32)c1 (configuration not stated) 31.6 µM [activator, single point]
